Test results published in paper PMC4336329 (PLoS ONE, 2015).
Screen size: about 310,000 compounds; about 2,200 (0.71%) showed an effect of 50% or more. Effects have a minus sign here. This is one part of the list.

Each molecule was assayed against human ether-à-go-go-related gene (hERG) potassium channel (human, UniProt Q12809) (assay: primary screen, population patch clamp on CHO cells stably expressing hERG).
human ether-à-go-go-related gene (hERG) potassium channel, sequence (Q12809 whole entry, looked up): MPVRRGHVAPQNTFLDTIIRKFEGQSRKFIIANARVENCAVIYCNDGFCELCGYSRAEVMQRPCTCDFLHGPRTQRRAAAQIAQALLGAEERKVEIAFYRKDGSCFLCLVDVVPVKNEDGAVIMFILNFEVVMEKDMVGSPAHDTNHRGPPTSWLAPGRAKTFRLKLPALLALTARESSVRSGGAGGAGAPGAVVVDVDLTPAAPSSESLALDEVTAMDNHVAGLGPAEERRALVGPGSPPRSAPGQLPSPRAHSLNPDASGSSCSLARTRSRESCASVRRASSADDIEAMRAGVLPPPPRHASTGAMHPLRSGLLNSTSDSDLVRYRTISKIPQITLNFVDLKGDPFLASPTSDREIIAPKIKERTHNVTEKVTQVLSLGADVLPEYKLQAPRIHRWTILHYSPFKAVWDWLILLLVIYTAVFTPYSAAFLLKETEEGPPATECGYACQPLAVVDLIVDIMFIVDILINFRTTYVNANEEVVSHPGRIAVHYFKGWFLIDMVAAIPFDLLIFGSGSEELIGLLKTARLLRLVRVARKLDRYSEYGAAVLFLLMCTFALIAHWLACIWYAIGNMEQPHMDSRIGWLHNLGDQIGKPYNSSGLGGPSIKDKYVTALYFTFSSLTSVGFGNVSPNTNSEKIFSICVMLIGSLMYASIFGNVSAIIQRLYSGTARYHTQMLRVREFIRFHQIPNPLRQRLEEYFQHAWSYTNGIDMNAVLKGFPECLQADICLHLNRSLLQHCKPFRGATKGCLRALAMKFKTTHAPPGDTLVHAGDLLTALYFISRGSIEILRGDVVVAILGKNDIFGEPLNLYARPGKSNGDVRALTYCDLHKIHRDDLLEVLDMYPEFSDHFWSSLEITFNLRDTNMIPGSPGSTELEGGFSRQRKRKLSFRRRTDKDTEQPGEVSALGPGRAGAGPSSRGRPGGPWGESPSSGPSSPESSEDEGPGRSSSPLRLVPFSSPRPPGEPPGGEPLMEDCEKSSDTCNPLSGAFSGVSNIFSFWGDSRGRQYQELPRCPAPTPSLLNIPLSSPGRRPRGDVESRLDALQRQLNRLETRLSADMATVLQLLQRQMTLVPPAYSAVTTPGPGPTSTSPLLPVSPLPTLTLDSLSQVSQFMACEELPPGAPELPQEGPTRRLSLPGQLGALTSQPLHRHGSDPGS

Row | SMILES | hERG current change (%, negative = inhibition) at 1uM [%]
1 | O=C(OCc1cccc([N+](=O)[O-])c1)c1cccnc1Cl | 0.438
2 | O=C(Nc1ccncc1)C1CCC(CNS(=O)(=O)c2cccc3nsnc23)CC1 (stereo not drawn) | 4.39
3 | O=C(CCN1C(=O)c2ccccc2C1=O)Nc1nc2ccccc2s1 | 8.11
4 | CN(C)CCC1Sc2ccccc2Oc2ccccc21.O=C(O)C(=O)O (stereo not drawn) | 5.08
5 | CCN(CC)CCCNc1ncnc2scc(-c3ccc(F)cc3)c12 | 2.18
6 | CCOC(=O)[C@H]1[C@H]2COc3ccc(C)cc3[C@@H]2N2C(=O)CN(Cc3ccc(Cl)cc3)C(=O)[C@@]12C | 11.7
7 | CC(OC(=O)CCOc1ccccc1)C(=O)NC1CC1 (stereo not drawn) | 14.1
8 | O=C(O)c1ccc(NCc2cccnc2)c([N+](=O)[O-])c1 | 18.8
9 | C=CCN(CC=C)C(=S)Nc1cc(Cl)ccc1OC | 12.4
10 | O=C(CCc1ccccc1)NC(=S)Nc1cc(C(F)(F)F)ccc1N1CCOCC1 | 5.7
11 | O=C1/C(=C/c2ccc(Cl)cc2)NC(=S)N1Cc1cccnc1 | 9.26
12 | Cc1ccc(O)c(NC(=O)c2onc(C)c2Cl)c1 | 10.8
13 | O=C(/C=C/c1ccccc1Cl)N(c1ccccn1)C1CCCCC1 | 7.03
14 | COc1cc(C(=O)N2CCN(c3ccccc3O)CC2)ccc1OCC(=O)N1CCOCC1 | 5.73
15 | Cc1ccc(-c2nc3ccccc3s2)cc1NC(=S)NC(=O)c1ccccc1 | 20.5
16 | CC(NC(=O)CCNC(=O)c1ccco1)c1ccccc1 (stereo not drawn) | 14.4
17 | Cc1ccc(C2=NN(C(=S)Nc3ccccc3)C(c3ccco3)C2)cc1 (stereo not drawn) | 10.8
18 | Cc1c(CN2CCCCC2C)c(=O)n(-c2ccccc2)n1C (stereo not drawn) | 4.08
19 | Cc1ccc(C)c(S(=O)(=O)N2CCCOC2CNC(=O)C(=O)NC2CCCCC2)c1 (stereo not drawn) | 2.9
20 | C=C(C)COc1ccc(-c2[nH]ncc2-c2ccc(OC)cc2)c(O)c1 | 13.9

Row | SMILES | hERG current change (%, negative = inhibition) at 1uM [%]
21 | Cc1nn(-c2ccccc2)c(C)c1/C=N/Nc1nc2ccccc2[nH]1 | 0.666
22 | C=CCn1c(O)c(C(C)=Nc2cccc(C(=O)O)c2)c(=O)[nH]c1=O | 8.55
23 | CCOc1ccc(CN(C)C(=O)NNC(=O)c2ccc(C)cc2)cc1OC | 13.6
24 | CCC(C)C1NC(=S)N(Cc2ccccc2)C1=O (stereo not drawn) | 0.307
25 | Cc1cccc(NC(=O)c2cc(NC(=O)CCCC(=O)O)ccc2Cl)n1 | 7.72
26 | O=C(CC(C(=O)O)c1cccc(Br)c1)c1ccc(Cl)cc1 (stereo not drawn) | 17.8
27 | Cl.NCC12CC3CC(C1)CC(c1ccc(Cl)cc1)(C3)C2 | 10.1
28 | Cc1ccc(S(=O)(=O)N(C)c2ccc(OCC(=O)NCC3(N(C)C)CCCCC3)cc2)cc1 | -41.4
29 | CCCCNC(=O)Nc1nnc(-c2ccc(OCC)cc2)o1 | 13.3
30 | CSc1ccc(S(=O)(=O)Nc2ccccc2C(=O)N2CCOCC2)cc1 | 11.6
31 | Cc1cccc(C(=O)NC(=S)NNC(=O)COc2c(C)cccc2C)c1 | 12.9
32 | Cc1cccc(OCC(=O)Oc2ccc(Cl)cc2)c1 | 4.49
33 | O=C(CCl)c1ccc(Cc2ncc(C(F)(F)F)cc2Cl)s1 | 17
34 | Cc1cccc(-c2nnc(NC(=O)c3cccs3)s2)c1 | -0.719
35 | CCCOC(=O)c1ccc(O)cc1 | 14.2
36 | O=C(CSc1ncn(-c2ccccc2)n1)NCc1ccccc1 | 17.9
37 | Cc1ccc2nc(C)cc(C(=O)N3CCCC(CO)(Cc4ccccc4C)C3)c2c1 (stereo not drawn) | 5.68
38 | COCCn1c(SCC(=O)NC2CCCCC2)nnc1-c1ccncc1 | 13.4
39 | CCc1ccc(NC(=S)N(CCCN2CCOCC2)Cc2ccco2)cc1 | 7.6
40 | COc1ccc2oc3ccc(OC)cc3c(=O)c2c1 | 0.614

Row | SMILES | hERG current change (%, negative = inhibition) at 1uM [%]
41 | S=C(NCc1ccc2c(c1)OCO2)Nc1ccc2nsnc2c1 | 11.5
42 | Cc1ccccc1NC(=O)Cc1nnc(SCc2ccc(Cl)c(Cl)c2)n1C | 6.67
43 | Cc1ccc(S(=O)(=O)NC2CCCC2)cc1C | 0.263
44 | CCCCCn1c(CCNC(=O)CCC)nc2ccccc21 | -31.2
45 | COc1cc(CNC2CCCCCC2)cc(OC)c1 | 10.7
46 | COCC(=O)N(Cc1cc2cccc(C)c2[nH]c1=O)c1ccccc1 | 13.3
47 | O=C(C1CC(=O)N(C2CCCCC2)C1)N1CCN(c2ccccc2)CC1 (stereo not drawn) | 9.57
48 | CCCC1=NCCn2cccc21.O=C(O)/C=C/C(=O)O | 9.06
49 | COc1cc(/C=C/C(=O)NCc2cccnc2)cc(OC)c1OC | -0.588
50 | O=C(CSc1nnc(-c2cccnc2)o1)Nc1nccs1 | -0.554
51 | Cc1csc(SCC(=O)Nc2cccc3nsnc23)n1 | 0.429
52 | Cc1ccccc1-c1nc2cc(NC(=O)C3CC3)ccc2o1 | 12.1
53 | CNc1c([N+](=O)[O-])cnn1-c1cccc(Cl)n1 | 18.3
54 | NC(=O)CSc1nnnn1-c1ccccc1Cl | 4.36
55 | Cc1ccc(NC(=S)NCCC2=CCCCC2)cc1 | 7.84
56 | Cc1ccccc1C(=O)N=c1c(C#N)cc2c(=O)n3cccc(C)c3nc2n1Cc1ccco1 | 4.01
57 | CCc1nn(CC(=O)N2CCC3(CC2)OCCO3)c(=O)c2cccn12 | 15.6
58 | Cc1ccc(S(=O)(=O)Nn2cnnc2)cc1 | 9.63
59 | O=C(NCc1ccco1)C1CCN(S(=O)(=O)N2CCC3(CC2)OCCO3)CC1 | 8.59
60 | COc1ccc(C(=O)Nc2nnc(S(=O)(=O)Cc3ccc(F)cc3)s2)cc1 | 12.9
